Our source for the survival values is PubChem BioAssay AID463173 (ICCB-Longwood Screening Facility, Harvard Medical School, 2010).

About 1,700 (3.3%) of roughly 52,000 compounds were called active. No stated cut-off is given here; in the data, active means survival mostly below about 52% (no sharp cut-off); inactive means mostly above about 56%. The list shows a part of the results.

This experiment deals with Wild type. Nature of the experiment: S. aureus survival, RN4220 and DeltatarO strains – OD600, teichoic acid synthesis inhibitors, primary screen (AID 463173). The following applies: S. aureus RN4220 wild type/DeltatarO growth, OD600, 18 h, stronger effect = lower value, screened at 18.75 µg/mL (by protocol).
Consider `CS(=O)(=O)NCc1ccc2c(c1)OCO2`, for which the survival was inactive: 110%.

As for `CCN(C(=O)C(=O)Nc1ccc2nc3n(c(=O)c2c1)CCCCC3)c1ccc(F)cc1`, the survival was inactive: 94%.

As for `CCN(c1ccccc1)C(CNS(=O)(=O)c1ccccc1)c1ccccc1` (stereo not drawn), the survival is inactive: 73%.

With `COc1ccc(CCNC(=O)c2ccc3c(c2)CCN3S(C)(=O)=O)cc1`, the survival was inactive: 94%.

As for `COc1ccc2c(CNCc3ccc(C)o3)c(C(=O)O)n(Cc3ccccc3C)c2c1`, the survival was inactive: 98%.

As for `Cc1nn(C(C)C(=O)NC2CCCCC2)c(=O)c2c1sc1ccccc12` (stereo not drawn), the survival was inactive: 82%.

With `COc1ccc(CC(=O)NC2CC(=O)N(c3cccc(F)c3)C2)cc1` (stereo not drawn), the survival is inactive: 110%.

On to `Cc1ccc(OCC(=O)Nc2ccc(OCc3cc(=O)n4cccc(C)c4n3)cc2)cc1C`, for which the survival was active: -6%.

Consider `COc1ccc(CCNC(=O)Cc2c(C)c3c(cc(C)c4c(C)coc43)oc2=O)cc1OC`, for which the survival was inactive: 87%.

Take `COc1ccc(OC)c(C2NC(=O)NC(C)=C2C(=O)Nc2cc(C)cc(C)c2)c1` (stereo not drawn): the survival is inactive: 72%.

As to `O=C(c1ccc2c(c1)N(Cc1ccccc1)C(=O)c1ccccc1S2(=O)=O)N1CCN(c2ccccc2)CC1`, the survival is inactive: 120%.

Consider `Cc1c(C(=O)N(Cc2ccc(N(C)C)cc2)C2CCS(=O)(=O)C2)oc2ccccc12` (stereo not drawn), for which the survival is inactive: 71%.

Take `Cc1ccc2sc(N(Cc3cccnc3)C(=O)CCOc3ccccc3)nc2c1C`: the survival was inactive: 63%.

Regarding `COc1cc(C(=O)CC2(O)C(=O)N(Cc3ccccc3Cl)c3ccccc32)cc(OC)c1OC` (stereo not drawn), the survival is inactive: 86%.

Turning to `CCc1ccc2c(c1)c1nnc(SCC(=O)c3ccc(OC)cc3)nc1n2C`, the survival was inactive: 106%.

`O=C(Nc1c(C(=O)N2CCN(c3ccc(F)cc3)CC2)oc2ccccc12)c1c(F)cccc1F`: the survival was inactive: 87%.

Consider `Cc1nnc(NC(=O)CSc2nc3c([nH]c4ccccc43)c(=O)n2-c2ccccc2)s1`, for which the survival was inactive: 75%.

Turning to `COc1ccc(C2CC(=O)c3cc(-c4nc(-c5cccc([N+](=O)[O-])c5)cs4)c(=O)n(-c4ccc(C)c(C)c4)c3C2)cc1` (stereo not drawn), the survival is inactive: 156%.

With `CCC(Sc1nc2ccccc2c2nc(CCn3cncc3C)nn12)C(=O)Nc1cccc(OC)c1` (stereo not drawn), the survival is inactive: 72%.

For `CC(C)Oc1ccc(C(=O)Nc2ccc3c(c2)CCCN3C(=O)c2cccs2)cc1`, the survival was inactive: 49%.

Take `COc1ccc(Cn2c(CNC(=O)c3ccc(N(C)C)cc3)nc3cccnc32)cc1`: the survival was inactive: 72%.

For `O=C(Cn1cc(SCc2ccc(C(F)(F)F)cc2)c2ccccc21)N1CCCCCC1`, the survival is inactive: 80%.

In the case of `CCC1CCCCN1CCCNC(=O)CN1C(=O)c2cccnc2Oc2ccc(Cl)cc21` (stereo not drawn), the survival was inactive: 65%.

As to `COc1ccc(CCNC(=O)c2ccc(Cn3c(=O)c4ccccc4n(Cc4cc(C)ccc4C)c3=O)cc2)cc1OC`, the survival was inactive: 97%.

For the molecule `Cc1ccc2oc(=O)c3cc(C(=O)Nc4ccc(F)cc4F)sc3c2c1`, the survival is inactive: 80%.

Turning to `Cc1cc(C)c2nc(N3CCCC(C(=O)NCc4cccc(Br)c4)C3)sc2c1` (stereo not drawn), the survival was inactive: 70%.

As to `Fc1ccc(Nc2nc3ccccc3c3nncn23)c(Cl)c1`, the survival was inactive: 96%.

Take `CC(C)CSc1nnc(-c2ccccc2)c(-c2ccccc2)n1`: the survival was active: -4%.

Consider `Cc1ccc(NC(=O)c2oc3ccc(S(=O)(=O)N4CCCCCC4)cc3c2C)cc1Cl`, for which the survival is inactive: 88%.

For `CCOC(=O)c1ccc(N2CCN(c3ccccc3F)CC2)c(NC(=O)Nc2ccc(Cl)c(Cl)c2)c1`, the survival is inactive: 65%.

Take `COc1ccc(C)c2sc(N(Cc3cccnc3)C(C)=O)nc12`: the survival was inactive: 59%.

On to `Cc1ccc(Cl)cc1NC(=O)CN1C(=O)c2cccc3cccc1c23`, for which the survival is inactive: 71%.

`CCCN1C(=O)c2[nH]nc(-c3ccccc3O)c2C1c1ccc(OCc2ccccc2)c(OCC)c1` (stereo not drawn): the survival is inactive: 66%.

Take `C=CCNc1nc(-c2ccccc2)cs1`: the survival is inactive: 109%.

`COc1ccc(-c2nc3ccccc3s2)cc1NC(=O)COc1ccccc1C`: the survival was inactive: 133%.

In the case of `COc1ccccc1OCCn1c(NC(=O)c2ccc(Cl)cc2)nc2ccccc21`, the survival was inactive: 80%.

Regarding `C=CCN(CC=C)C(=O)C1CCN(Cc2cc(Br)c(O)c(OC)c2)CC1`, the survival is inactive: 98%.

`CCc1ccc(NC(=O)C2CCC(CNS(=O)(=O)c3ccc4c(c3)CC(C)N4C(C)=O)CC2)cc1` (stereo not drawn): the survival is inactive: 113%.

Regarding `CCOC(=O)CSc1ccc2nnc(CCNS(=O)(=O)c3ccccc3)n2n1`, the survival is inactive: 87%.

Regarding `Cc1ccc(CCNC(=O)C(NS(=O)(=O)c2ccc3c(c2)oc(=O)n3C)C(C)C)cc1` (stereo not drawn), the survival is inactive: 85%.

In the case of `Cc1ccc(N(CC(=O)N2CCN(c3ccccc3F)CC2)S(=O)(=O)c2c(C)noc2C)cc1`, the survival was inactive: 75%.

For `O=C(Nc1cccc(C(=O)OCc2cc(=O)n3nc(C4CC4)sc3n2)c1)c1cccc(F)c1`, the survival was inactive: 63%.

On to `O=C(NC1CCCCC1)C(c1cccs1)N(Cc1cccs1)C(=O)c1cccs1` (stereo not drawn), for which the survival is inactive: 116%.

For the molecule `COc1cc2c(cc1OC)C(c1ccc(F)cc1)N(c1cccc(C#N)c1)C(=O)C2` (stereo not drawn), the survival was inactive: 85%.

For `O=C(NCCc1ccccc1)c1ccc2c(c1)N(Cc1c(F)cccc1Cl)C(=O)CS2`, the survival was inactive: 84%.

In the case of `Cn1c(=O)c(=O)n(C)c2cc(S(=O)(=O)N3CCCC3C(=O)Nc3ccccc3F)ccc21` (stereo not drawn), the survival was inactive: 71%.

Regarding `COc1ccc(Cn2ccn(Cc3cccc(C)c3)c(=O)c2=O)cc1`, the survival is inactive: 111%.

In the case of `COc1cc2c(cc1OC)C(COc1ccc3c(C)cc(=O)oc3c1)N(C(=O)c1cccc(C)c1)CC2` (stereo not drawn), the survival is inactive: 78%.

On to `CCOc1ccc(-n2c(SCC(=O)NCC3CCCO3)nc3c([nH]c4ccccc43)c2=O)cc1` (stereo not drawn), for which the survival was inactive: 88%.

Take `N#CC(C#N)=C(N)/C(C#N)=C\c1ccc(-c2ccccc2)o1`: the survival is inactive: 129%.

Consider `Cc1ccc(N(CC(=O)Nc2cccc(F)c2)S(=O)(=O)c2cccs2)cc1`, for which the survival was inactive: 91%.

For `COc1ccc(NC(=O)CSc2nncn3c2cc2oc(C)cc23)cc1OC`, the survival is inactive: 107%.

Turning to `CC1(C(=O)Nc2cccc(Br)c2)Cc2ccccc2C(=O)O1` (stereo not drawn), the survival is inactive: 85%.

For the molecule `CC(=O)N1CCCc2cc(S(=O)(=O)N3CCC(C(=O)NC4CCC(C)CC4)CC3)ccc21` (stereo not drawn), the survival was inactive: 65%.

`CCc1ccc(NC(=O)CSc2nccn2-c2ccc(OC)cc2)cc1`: the survival is inactive: 153%.

Consider `CNC(=O)C1CCC(Cn2c(=O)c3sccc3n(Cc3ccc(F)cc3)c2=O)CC1` (stereo not drawn), for which the survival was inactive: 71%.

`COCCCNC(=O)CCC(=O)N1Cc2cccc(OC)c2Oc2ncccc21`: the survival is inactive: 79%.

Turning to `Cc1ccc2nc(N3CCN(Cc4nnnn4C4CCCC4)CC3)c(C#N)cc2c1`, the survival was inactive: 106%.

Consider `CCc1ccc(N2C(=O)C3C4CCCC4=C4CCCC4C3C2=O)cc1` (stereo not drawn), for which the survival was inactive: 116%.

Take `OC1CCN(c2cc(-c3ccccc3)nc3cc(-c4cccc(Cl)c4)nn23)CC1`: the survival is inactive: 107%.

`Nc1nc(SCC(=O)N(CCO)CCO)nc2sc3c(c12)CCCC3`: the survival is inactive: 105%.

As to `COC(=O)c1ccccc1NC(=O)c1ncoc1-c1ccco1`, the survival is inactive: 83%.

Take `CCn1c(C(=O)NCc2ccccc2C)cc2oc3ccccc3c21`: the survival is inactive: 15%.

`Cc1nc(-c2cccc(NC(=O)Nc3ccc([N+](=O)[O-])cc3)c2)no1`: the survival was inactive: 120%.

As to `Cc1ccccc1OCCSc1nc2ccc(NC(=O)c3ccccc3)cc2s1`, the survival is inactive: 85%.

As to `COC(=O)Cn1nc(C)c2c(C)n(-c3ccccc3)nc2c1=O`, the survival is inactive: 76%.

In the case of `CCCN1C(=O)c2[nH]nc(-c3ccccc3O)c2C1c1ccc(OCc2ccccc2)c(OC)c1` (stereo not drawn), the survival was inactive: 64%.

On to `COc1cc(C(=O)N2CCN(c3ccc(Nc4ccc(C)cc4)nn3)CC2)cc(OC)c1OC`, for which the survival was inactive: 77%.

As for `Cc1ccc(C(=O)Nc2cccc(OCc3cc(=O)n4c5c(sc4n3)CCCC5)c2)cc1`, the survival is inactive: 134%.

As to `COc1cccc2c1cc1c(=O)n(CC(=O)NC3CCCCC3)nc(C)n12`, the survival was inactive: 86%.

With `COc1ccc(C2CC(=O)C(C=NCC(C)C)=C(O)C2)cc1` (stereo not drawn), the survival is inactive: 103%.

As for `CCOC(=O)c1ccc(NC(=O)Cn2c(=O)cc(C)c3c(C)nn(-c4cccc(F)c4)c32)cc1`, the survival is inactive: 97%.

Regarding `NC(=O)CSc1oc(-c2ccco2)nc1S(=O)(=O)c1ccc(Cl)cc1`, the survival is inactive: 68%.

For `Cc1ccc(NC(=O)c2cc3cc(C)ccc3n2C)cc1`, the survival was inactive: 93%.

As for `Cc1nn(Cc2ccccc2Cl)c(C)c1NC(=O)c1cc(C(C)C)on1`, the survival was inactive: 66%.

In the case of `CCC1CCCCN1C(=O)Cn1c(=O)oc2cc(S(=O)(=O)N3CCCCC3)ccc21` (stereo not drawn), the survival is inactive: 85%.

Consider `O=C(NCCc1ccccc1)c1sc2ncccc2c1-n1cccc1`, for which the survival is inactive: 75%.

Turning to `CCCc1cnc2c(c1SCC(=O)N1CCC(C)CC1)c(=O)n(C)c(=O)n2C`, the survival was inactive: 80%.

Take `O=C(Nc1nc2n(n1)C(c1ccc(F)cc1)C=C(c1ccccc1)N2)c1ccc(Cl)cc1` (stereo not drawn): the survival was inactive: 52%.

As for `O=C(CC(C(=O)O)C1CCCO1)Nc1ccc(F)cc1` (stereo not drawn), the survival is inactive: 88%.

`Cc1ccc(NC(=O)C(Cc2ccccc2)NS(=O)(=O)c2ccc3c(c2)oc(=O)n3C)cc1F` (stereo not drawn): the survival was inactive: 104%.

`CCN1CCN(C(=O)c2ccc(S(=O)(=O)N(CC)CC)cc2)CC1`: the survival is inactive: 106%.

As to `CCCCNC(=O)C1CCC(Cn2c(=O)c3sccc3n(CC(=O)N3CCCC3)c2=O)CC1` (stereo not drawn), the survival is inactive: 121%.

As for `NS(=O)(=O)c1ccc(NC(=O)C2CCCO2)cc1` (stereo not drawn), the survival is inactive: 90%.

With `Cc1cc(C)cc(NC(=O)C(=O)NCC(c2cccnc2)N2CCc3ccccc3C2)c1` (stereo not drawn), the survival was inactive: 85%.

Consider `Clc1cccc(-n2ncc3c(N4CCC(Cc5ccccc5)CC4)ncnc32)c1`, for which the survival was inactive: 88%.

In the case of `COC(=O)c1cccnc1-n1c(=O)c2cccnc2n(CC(=O)Nc2ccccc2F)c1=O`, the survival was inactive: 84%.

For `CCc1ccccc1NC(=O)c1sc2nc3c(cc2c1N)CN(Cc1ccccc1)CC3`, the survival is inactive: 78%.
